Consider one molecule from PubChem BioAssay (NCI).

Some compounds were tested as several samples or in several runs, with calls that do not always agree.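 Negative percent growth values reflect cell death: -40 means 40% of the cells present at the start died, and -100 means all died.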 For part of its entries the source gives two or more results. The list is limited to them. The calls were made as follows: active = growth percent below 10; inactive = the rest. The source may hold further records. The screen tested this drug many times, at the concentration stated with the values; each value is one run. Marks such as (2×) count equal records among those shown.

The test has as its system HS 578T breast. The test can be described thus: NCI-60 one-dose screen, 48 h (100 = growth as untreated, 0 = no growth, -100 = all killed). The settings on record: 0.25 µM.

In the case of `COc1cccc2c1C(=O)c1c(O)c3c(c(O)c1C2=O)C[C@@](O)(C(=O)CO)C[C@@H]3OC1CC(N)C(O)C(C)O1` (stereo not given in full), the growth result by setting is: (runs of 2008) “inactive: 74.8, 56, 59.7, 63.7, 77.5, 71, 70.8, 64.8, 78.7, 55.5, 62.4, 47.1, 48, 33.7, 49, 82, 79.2, 51.2, 40.2, 51.5, 62.1, 40.5, 60.1, 29.9, 38.4, 108, 50.1, 16.3, 12.8, 44.1, 13.1, 73.1, 42.7, 26.7, 33.5, 36, 58.3, 54.5, 46.5, 68.8, 63.8 (2×), 66.9, 82.9, 45.7, 53.9, 54.2, 36.9, 69.3, 77.3, 40.9% and active: 9.92%, -8.03%”; (runs of 2009) “inactive: 59.7, 25.6, 54.6, 63.9, 65.5, 71.8, 51.8, 60.8, 83, 72.7 (2×), 70.2, 55.7, 51.9, 67.7, 70.3, 81.4, 57.9 (2×), 47.2, 52.5, 57.3 (2×), 35.9, 54.5, 73.2, 56.7, 67.8, 63.5, 49 (2×), 76.9, 52.1, 77.5 (2×), 56.6, 50.6 (2×), 53.8, 78.7, 54.2, 58.2, 83.8, 81.1, 68.9, 67.9, 43.5, 84.4, 55, 37.5, 64.3, 47.4, 71.2, 69.7, 60.5, 55.1, 65.3%”; (runs of 2010) “inactive: 69.9, 69.6, 62.5, 77.1, 57.8, 66.7, 39.4, 66.2, 60.5, 74, 71.2, 63.7, 63.9, 56.5, 69.3, 77.2, 70.3, 44.6, 70.4, 78.3 (2×), 87.5, 86.7, 72.1 (2×), 78.4, 49.4, 77.4, 55.1, 92.3, 74.2 (2×), 66.9, 54.9, 83.7, 52.6, 65.4, 46.8, 62.4, 58.4, 70.6 (2×), 75.6, 53.8, 98.8, 73.8, 64.3, 69.8, 65.5, 79.6% (2×)”; (runs of 2011) “inactive: 72.1, 95.3, 71.9, 82.7, 91, 89.3, 85.8, 76.7, 77.4 (2×), 86.6, 89.8, 92.8, 78.1, 72.7, 76.4, 91.9, 76.8, 76.1, 87.5, 83.4, 82.4, 72.5, 75.9, 83.5 (2×), 75.5, 73, 71.4, 61.6, 79.1, 64.8, 67.5, 59.9, 86.9, 81.2, 67.1, 68.7, 67.9, 69.9, 66.2, 71.1, 57.3, 75.2, 67.8, 83.1, 67.3, 73.2, 57.8, 71.2, 70.5, 73.9, 75%”; (runs of 2012) “inactive: 66.6, 46.8, 62.1 (2×), 57, 44.4, 69.8 (2×), 61.8, 72, 68.5, 73.3, 66.5, 41.1, 58.3, 60.5, 68.6, 70.9, 59.2, 63.7, 69.3, 67.7, 68.2, 72.2 (2×), 69.7, 74.1, 78.7, 69.1 (2×), 82, 68.3, 73.2, 63.1, 68.9, 73, 79.5 (2×), 63.3, 76.1, 76.8, 74.8, 75.8, 83.4, 81.6, 91.9, 83, 90.8, 87.7, 85.8, 95.2, 64, 66.2, 73.1, 73.9, 71.4, 75, 63.4, 41.4%”; (runs of 2013) “inactive: 66.8, 69.5 (2×), 73.2, 69.6, 82.8, 77.6, 73.3 (2×), 80, 71.4, 81.2, 78.2 (2×), 70.6, 75.3, 83.4, 76.7, 79, 77, 77.4, 74.9, 68.4 (2×), 72.6, 62.1, 68.3, 62.4, 69.4 (2×), 81.7, 66.9, 70.4, 64.5, 75.5, 75.9, 86.9, 88.8, 75.8, 74, 79.2, 80.2, 72.5, 74.8, 74.3, 75.2, 65.3, 64.2 (2×), 66.4, 55.6, 53.2, 47.3, 42.8, 64, 61.7, 57.4, 72, 68.2, 57.2 (2×), 60 (2×), 67.1, 66.1%”. The growth entry (runs of 2014) was “inactive: 59.8, 55.9, 71.7 (2×), 66.6 (3×), 57.1, 62.3 (2×), 57, 53.1, 48, 66 (2×), 63.9, 75.8, 54.1, 67.8, 57.7, 69.9 (2×), 65.3 (3×), 52.8, 71.3 (2×), 68.2 (2×), 56.8, 67.7, 73.9 (3×), 66.1 (2×), 65.2, 66.3, 71.2, 57.6, 63.1, 81.4, 79.2, 65.4, 67.3, 74.4, 79.6 (2×), 75.1 (2×), 80.1 (2×), 72.2, 80 (2×), 77, 71.4, 60, 63.8, 63.6, 78.2, 67.2, 80.4, 70.2, 75.2, 71.1, 75.9, 74.9, 76.8%”; the growth entry (runs of 2015) was “inactive: 83.2 (2×), 77.8, 68.3, 80.2, 76.6, 80.8, 82.8, 86.4, 70, 73.8, 74.3, 78.2 (2×), 72.2, 75.4, 66.7, 63.5, 44.3, 50.7, 65.2, 57.8, 80.4, 71.7, 71, 52 (2×), 58, 53.9, 77.5, 64.8 (2×), 68.2, 53.6, 64.4, 63.6, 73.1, 64.6 (3×), 83.6, 57.7, 62.1 (2×), 71.1 (2×), 66.6, 70.4, 51.2, 34, 53, 62.5, 54.9, 59.2, 68.6, 75.6, 69.1, 79.4, 82.6, 80, 67.5, 74, 61.2, 60.6, 45.4, 62, 62.2, 65.3, 54.5, 77.6, 82.3, 72.5, 78.3, 79.6%”; the growth entry (runs of 2016) was “inactive: 68.7, 62.9, 70.5 (3×), 71.7, 73.4, 70.6, 82.8, 76.5, 76.9, 79.8 (2×), 66, 69.1, 68.6, 68.4, 53, 70.4, 78.2 (2×), 62.1, 75.1 (3×), 73.3, 66.9 (2×), 79.6 (2×), 68.3, 77.2, 71.3, 64.8, 69.5, 60.6, 77.1, 65.5, 77.5, 67.8, 70.2, 81.9, 69.4, 84, 71 (3×), 86.1, 67.5, 71.2, 69.9, 73.2, 74.8, 79, 79.2 (2×), 71.4, 75.4, 80.3, 81.7, 75.5, 74.2, 66.2, 80.1, 71.9, 86.4, 69.8, 81.2, 78.9, 68, 82.7, 76.8, 77.3, 78.3, 73.9, 90.6, 81.1%”; the growth result (runs of 2017) is “inactive: 82.7, 74.1, 68.9, 63.8, 69.3 (2×), 77.5, 67.9, 70.8, 69.9 (2×), 72.2, 78.2, 73.3, 73.9, 72.6 (2×), 66.9 (3×), 53.2 (2×), 59.8, 66.8, 68.3 (3×), 56.2, 58, 62.9, 66, 54.1, 71.1 (3×), 70, 65.4, 72.9, 61 (2×), 58.1, 62.5 (2×), 74.3 (2×), 68.4 (3×), 67.3, 71.3, 76.8, 63.7, 71.2, 64.3, 62.2 (2×), 70.9, 71.7, 66.1, 70.2 (2×), 64.4, 66.3, 67.2, 74.8, 66.6, 67.1, 73.8, 69.8, 66.2, 65.9, 56.9, 74.4, 56.3 (2×), 58.9%”; the growth result (runs of 2018) is “inactive: 65.3, 61.6, 53.8, 55, 49.3, 56, 58.2, 73.4, 69.1, 59.7, 57.5 (2×), 59.9, 71.1, 70.3, 66.7, 66.8, 63.7, 57.7, 56.6, 62, 64.1, 55.7, 57.2 (2×), 66.5, 65.5, 64.5, 73.8, 62.3, 67.7, 60.6, 57.3, 58, 55.1, 62.2, 74.2, 60.4, 59.8, 55.2, 50.5, 51.8, 57.4, 60.2, 69.5, 34%”; the growth entry (runs of 2019) was “inactive: 56.1, 52.6, 39.2, 44.9, 24.9, 54, 44.3, 41.1, 48.7, 47.5, 58, 54.8, 63.5, 68.7 (2×), 61.8, 60.3, 58.1, 47, 64.2, 54.6, 49.8, 51.5, 52.1, 44.4, 55.6, 59.1, 58.3, 39.9, 49.4, 53.5, 62.1, 61.2, 66.3, 55.7, 66.2, 71.1, 66.6, 75.5, 72, 64.5, 70.6, 75, 68.8, 52%”. For the same molecule, the growth entry (runs of 2020) was “inactive: 55.8, 56.7, 73.2 (2×), 67.1, 71.2, 61.2, 59.5, 70.3, 70.5 (2×), 62.5, 68.2 (2×), 55.6, 82.6, 57.4, 66.3, 73.1, 69.7, 56.9, 65.4, 74.2, 66.2, 56.6%”; the growth result (runs of 2021) was “inactive: 60.5, 64.8, 63.3, 69.7, 54.9, 64.1 (2×), 61.3 (2×), 64.2, 55.4, 50.9, 57.1 (2×), 65.2, 63.7, 75, 67.7, 68.6, 59.1, 57.7, 58, 64.5, 59.5, 55.2, 59.7, 62, 60.8, 57.6, 55.6, 50.2, 52.7, 51.5, 66.5 (2×), 66.3, 57.4, 75.1, 80.4, 72.8, 76.9, 55.9, 50.1, 82.6, 74.1, 75.2%”; the growth result (runs of 2022) is “inactive: 28.4, 34, 52.9, 53.8, 50.1, 35.5, 50.9, 64.6, 67.5, 51.7, 54.9, 62.1 (2×), 68.2, 73.2 (2×), 74, 64.4, 38.7, 73.3 (2×), 78.3, 70.9, 52.5, 71.4, 71.3% and active: -2.54%”.
